From PubChem BioAssay AID686979 (National Center for Advancing Translational Sciences (NCATS), 2013)
About 50,000 (12%) of roughly 420,000 compounds were called active. The inconclusive results got no clear call from the source; some entries with a clear call stand among them for comparison. Calls come from the whole dose curve; as a rule, active = well fitted inhibition curve with a large enough effect; inconclusive = small, poorly fitted or top-dose-only effect; inactive = flat fitted curve, though single readings scatter. Potencies of inconclusive entries are left out as doubtful fits.

test: qHTS for Inhibitors of human tyrosyl-DNA phosphodiesterase 1 (TDP1): qHTS in cells in presence of CPT; conditions: chicken DT40 Tdp1-/-;hTDP1 cells + 20 nM CPT, ATP luminescence, 48 h; activity change, negative = growth inhibition: at 46.2 µM (top of the series); note: nearly all actives have a fitted effect of over 55% in size
In short: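 Chicken DT40 Tdp1-/- cells stably complemented with human TDP1 were seeded at 400 cells/well in medium containing 20 nM camptothecin, exposed to pin-transferred compounds, and grown at 37 °C for at least 48 hr. Viability was read as ATP luminescence.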
% is set by controls: 0 for no effect and ±100 for the full control effect; potency is the fitted concentration of half-maximal effect; tags give direction and shape of the fitted curve.

| SMILES | Potency | activity change, negative = growth inhibition |
| --- | --- | --- |
| CCN(CC)CCNCC(O)(c1ccc(Cl)cc1)c1ccc(Cl)cc1 | inconclusive [inhibitor, single point] | – |
| CC(Oc1cccc(Cl)c1)C(=O)Nc1ccc(N2CCOCC2)cc1N1CCOCC1 (stereo unspecified) | inconclusive [inhibitor, single point] | – |
| Cc1cc(C)nc(SCC(=O)c2ccc(C)c(C)c2)n1 | inconclusive [inhibitor, single point] | – |
| CN(C)C(=S)N=Nc1[nH]c2ccccc2c1O | active: 0.58 µM | – |
| COc1ccc(CCNC(=O)c2cc3c(=O)n4ccccc4nc3n(CCCN3CCOCC3)c2=N)cc1 | inconclusive [inhibitor, single point] | – |
| CC(C)CN1CCN(Cc2cnc(-c3ccc(Cl)cc3)nc2)CC1CCO (stereo unspecified) | inconclusive [inhibitor, single point] | – |
| COc1ccccc1-c1sc2ccccc2c1C#CC1(O)CCCCC1 | inconclusive [inhibitor, single point] | – |
| CCc1ccccc1NC(=O)CN1CCN(C(=O)CCC(=O)N2CCC(c3ccccc3)=N2)CC1 | active: 14.6 µM | – |
| O=S(=O)(NCc1ccccc1Cl)c1ccc(N2CCCCS2(=O)=O)cc1 | active: 16.4 µM | – |
| Cc1cccc(C(=O)Nc2nnc(SCC(=O)Nc3ccc4c(c3)oc3ccccc34)s2)c1 | inconclusive [inhibitor, single point] | – |
| O=C(c1cc2nc(-c3ccc(Cl)cc3)cc(C(F)(F)F)n2n1)N1CCOCC1 | inconclusive [inhibitor, full curve, poor fit] | – |
| COc1cc(N2CCCC2)c(OC)cc1/C=C(/C#N)c1cccc(F)c1 | inconclusive [inhibitor, single point] | – |
| COc1ccc(C(C(=O)NC(C)(C)C)N(C(=O)CCC(=O)Nc2cc(C)on2)c2ccc3c(c2)OCCO3)cc1 (stereo unspecified) | inactive | – |
| COc1ccc2c(c1)CCc1cc(C(=O)N3CCN(c4ccc(N5CCOCC5)nn4)CC3)sc1-2 | active: 20.6 µM | – |
| CCOC(=O)CC1C(=O)NCCN1C(=O)c1ccc(Cl)cc1Cl (stereo unspecified) | inactive | – |
| CCc1ccccc1OCC(=O)Nc1ccc(C)c(S(=O)(=O)N2CCCCCC2)c1 | active: 14.6 µM | – |
| CCN(C)c1ccc(/C=C/c2ccnc3ccccc23)cc1 | active: 11.2 µM | – |
| CCOc1cc(N2CCOCC2)c(OCC)cc1NC(=O)Cc1ccccc1OC | active: 16.4 µM | – |
| CC1CCc2ccccc2N1C(=O)c1cccs1 (stereo unspecified) | inconclusive [inhibitor, partial curve] | – |
| CCCCN(C)CCNC(=O)c1ccc2c(c1)NC(=O)CN2 | inconclusive [inhibitor, single point] | – |
| Cc1cccn2c(=O)c3cc(C(=O)N(Cc4ccccc4)C(C)C)sc3nc12 | active: 16.4 µM | – |
| Cc1cccc(C(=O)Nc2nc(-c3nnn(-c4cc(F)ccc4F)c3C)ns2)c1 | inconclusive [inhibitor, single point] | – |
| O=C(CSc1n[nH]c(=O)[nH]c1=O)N1CCCCCC1 | inconclusive [inhibitor, single point] | – |
| Cc1ccc(-n2cc(CN3CCC(O)(c4ccccn4)CC3)c(-c3ccc(F)cc3)n2)cc1 | inconclusive [inhibitor, single point] | – |

| SMILES | Potency | activity change, negative = growth inhibition |
| --- | --- | --- |
| CCOc1ccc(S(=O)(=O)NCc2ccccn2)cc1NC(=O)c1ccccc1 | active: 1.3 µM | – |
| O=C(NCCc1ccccc1)c1cccc(NC(=O)C2CCCC2)c1 | inactive | – |
| CC1CCc2cc(F)ccc2N1C(=O)CSc1nnc(-c2cccs2)n1C (stereo unspecified) | inactive | – |
| CCOC(=O)c1cc(-c2ccc(F)cc2)n(CC(=O)NC(C)CC)c1C (stereo unspecified) | inconclusive [inhibitor, single point] | – |
| Cc1ccc(C(=O)c2coc3ccc(O)cc23)cc1 | inconclusive [inhibitor, single point] | – |
| CCOc1cccc(C(=O)Nc2ccc(NC(=O)c3cc4ccccc4o3)c(OC)c2)c1 | inconclusive [inhibitor, single point] | – |
| CN(C)c1ccnc(Oc2ccc(C(C)(C)C)cc2)c1C#N | inconclusive [inhibitor, single point] | – |
| Cc1c(Cl)cnc(NC(=O)COC(=O)CCc2nc3ccccc3s2)c1Cl | inactive | – |
| Cc1cc(Cl)ccc1NC(=O)C1CCN(c2nnc(-n3c(C)ccc3C)s2)CC1 | inconclusive [inhibitor, single point] | – |
| CCOC(=O)c1ccccc1NC(=O)N1CCOc2ccc(Cl)cc21 | inconclusive [inhibitor, single point] | – |
| COc1ccccc1N1CCN(C(=O)c2ccc(Cn3c(=S)[nH]c4cc5c(cc4c3=O)OCO5)cc2)CC1 | inconclusive [inhibitor, single point] | – |
| Cc1ccc(C23CC4CC(CC(NC(=O)N5CCN(C)CC5)(C4)C2)C3)cc1 | inconclusive [inhibitor, single point] | – |
| Cc1ccc(C(=O)Nc2ccc(C)c(S(=O)(=O)N(C)C)c2)s1 | inconclusive [inhibitor, single point] | – |
| O=C1CCC[C@@H]2C[C@@]3(C[C@@H]4CCN1[C@H]24)Nc1cc([N+](=O)[O-])ccc1NC3=NCc1ccccc1 | inconclusive [inhibitor, single point] | – |
| Cc1ccc(NC(=O)C(=O)NCC(c2cccnc2)N2CCN(Cc3ccccc3)CC2)cc1 (stereo unspecified) | active: 23.1 µM | – |
| O=C(CN(Cc1ccco1)Cc1cccs1)N1CCN(S(=O)(=O)c2cccc(F)c2)CC1 | active: 23.1 µM | – |
| Cc1cccc(C(=O)NCC2CCN(C(=O)c3cccc(C)c3)CC2)c1 | inconclusive [inhibitor, single point] | – |
| Cc1ccc2ccc3cc(C(=O)N4CCN(c5ccccc5)CC4)nc3c2[nH]1 | inconclusive [inhibitor, single point] | – |
| CCCOc1ccc(NC(N)=O)cc1OCCC | inactive | – |
| O=C(Nc1ccccc1Cl)Nc1cccnc1Cl | inconclusive [inhibitor, single point] | – |
| Cc1ccc(Cc2nnc(SCC(=O)Nc3ccccc3C)[nH]c2=O)cc1 | inactive | – |
| CCc1ccccc1NC(=O)CSc1nc2c(oc3ccccc32)c(=O)n1-c1ccccc1F | inconclusive [inhibitor, single point] | – |
| Nc1nccnc1C(=O)OCC(=O)NCCc1ccc(S(N)(=O)=O)cc1 | inactive | – |
| COc1ccc2nc3oc(C(=O)N4CCN(c5cccc(Cl)c5)CC4)cc3cc2c1 | inconclusive [inhibitor, single point] | – |

| SMILES | Potency | activity change, negative = growth inhibition |
| --- | --- | --- |
| O=C(c1cc(C2CC2)nc2ccccc12)N1N=C(C(F)F)CC1(O)C(F)F (stereo unspecified) | inconclusive [inhibitor, single point] | – |
| CCOc1cc(C)c(Cl)cc1S(=O)(=O)N(C)C | inconclusive [inhibitor, single point] | – |
| COc1cc(NC(=O)C(C)C)ccc1NC(=O)c1cc2ccccc2o1 | inconclusive [inhibitor, single point] | – |
| COc1ccc(CNC(=O)c2ccc(CS(=O)(=O)Cc3ccccc3F)o2)cc1 | inconclusive [inhibitor, single point] | – |
| O=C(Cn1c(=O)n(Cc2ccc(F)cc2)c(=O)c2ccccc21)NCC1CCCO1 (stereo unspecified) | – | inconclusive: -30.9% [inhibitor] |
| CCCCCCCCNc1nc(Cl)nc(NCc2ccco2)n1 | inactive | – |
| Cc1cc(C)cc(C(=O)NCC(=O)OCC(=O)NC2CC2)c1 | inactive | – |
| COCCn1c(=O)c(CCc2ccccc2)nc2cnc(N3CCNCC3)nc21 | inactive | – |
| Oc1ccc(C(=S)N2CCN(c3cccc(Cl)c3)CC2)cc1 | inconclusive [inhibitor, single point] | – |
| O=C(c1cccnc1)N1CCN(c2ccc(Cl)cc2)CC1 | inconclusive [inhibitor, single point] | – |
| O=C(CCNC(=O)C1CCN(S(=O)(=O)c2ccc(F)cc2)CC1)NCc1ccccc1 | inactive | – |
| CN(C)c1ccc(C(=O)NC2CCCc3ccccc32)cc1 (stereo unspecified) | inconclusive [inhibitor, single point] | – |
| CC(=O)Nc1ccc(S(=O)(=O)NC2CC3CCC2C3)cc1 (stereo unspecified) | inconclusive [inhibitor, single point] | – |
| O=C(NC1=C(Nc2ccc(F)cc2)C(=O)c2ccccc2C1=O)c1ccc(Cl)cc1 | active: 20.6 µM | – |
| CCOCCCn1c(SCc2ccccc2)nnc1-c1ccncc1 | inactive | – |
| Cc1ccc(CN2CCN(Cc3ccon3)CC2CCO)cc1 (stereo unspecified) | inactive | – |
| Cc1cn(CC(=O)NCC(c2ccccc2)c2ccccc2)c(=O)[nH]c1=O | inactive | – |
| Cc1ccc(C)c(NC(=O)CN(C)C(=O)c2cc3c(s2)CCCCC3)c1 | inconclusive [inhibitor, single point] | – |
| CCCC(O)(CCN1CCCCC1)c1ccc(OCC)cc1 (stereo unspecified) | inconclusive [inhibitor, single point] | – |
| CCOC(=O)C[C@H]1c2ccccc2S(=O)(=O)N1Cc1ccc(Cl)cc1 | active: 11.2 µM | – |
| Cc1ccc(C)c(S(=O)(=O)N2CCCOC2CNC(=O)C(=O)NC2CC2)c1 (stereo unspecified) | inactive | – |
| CCOc1ccc(CCNC(=O)c2[nH]c3cc(OC)ccc3c2Sc2ccccc2)cc1OCC | inconclusive [inhibitor, single point] | – |
| COC(=O)CNC(=O)C1Nc2ccccc2C2C=CCC12 (stereo unspecified) | inconclusive [inhibitor, single point] | – |
